According to the supplement of paper PMC3334620:
Over roughly 33,000 sequences, “E-score (-0.5 to 0.5)” has its median near -0.017; the highest 2% begin near 0.3. Some of the results follow.

The sequences below were run against T1, Sut1 (UniProt P53032) (assay: PBM E-score (8-mer binding enrichment) (E-score (-0.5 to 0.5)); higher = stronger / more preferred TF binding; most listed sequences are background and not binding sites). Conditions: protein concentration: 200 nM; construct: GST-full length.
T1 sequence: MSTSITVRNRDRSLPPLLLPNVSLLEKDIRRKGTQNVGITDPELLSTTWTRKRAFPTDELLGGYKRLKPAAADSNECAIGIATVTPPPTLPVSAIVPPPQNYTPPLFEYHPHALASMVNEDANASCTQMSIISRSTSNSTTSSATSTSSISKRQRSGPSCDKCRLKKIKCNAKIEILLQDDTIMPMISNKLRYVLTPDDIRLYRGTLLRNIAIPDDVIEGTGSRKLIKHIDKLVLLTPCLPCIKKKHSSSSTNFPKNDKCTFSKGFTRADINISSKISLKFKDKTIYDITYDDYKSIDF
Summary of the method: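 Universal all-10-mer Agilent arrays, fresh or stripped once, were converted to double-stranded form by primer extension. GST-tagged yeast transcription factors from PURExpress in vitro transcription/translation, full-length or DNA-binding domain only, were applied at about 100-200 nM and detected with fluorescent anti-GST. After masliner normalisation, the Universal PBM Analysis Suite scored each ungapped eight-base word together with its reverse complement by E-score.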
With AGCACGCC the “PBM E-score” value was -0.0599. For GCAGACAA, the “PBM E-score” value was -0.0189. ATCTGCAA was tested, and the “PBM E-score” value was -0.183. With ACTCAGCT the “PBM E-score” value was -0.0442. For CCGACTGC, the “PBM E-score” value was -0.0745. In the case of AGGAACGA, the “PBM E-score” value is reported as -0.214. For ACTCTCGC, the “PBM E-score” value was 0.0302. For ACCGCGCT, the “PBM E-score” value was -0.0265. For ACTGCGGA, the “PBM E-score” value was 0.166. CGCGAAGA was tested, and the “PBM E-score” value was 0.0395. ACTTTTAA was tested, and the “PBM E-score” value was 0.103. For CCACGAGC, the “PBM E-score” value was 0.0588. For AGTTTCCC, the “PBM E-score” value was -0.011. For GATCGGGC, the “PBM E-score” value was -0.0436. For AGATATGG, the “PBM E-score” value was 0.0624. For CCCTGAAA, the “PBM E-score” value was -0.181. CCTGTAAA was tested, and the “PBM E-score” value was -0.0447. With AAAGCCAA the “PBM E-score” value was 0.118. GATCCTAA was tested, and the “PBM E-score” value was -0.209. For ATCTTTGG, the “PBM E-score” value was 0.00476. For CCAGAGGG, the “PBM E-score” value was -0.215. For ATTCGAGG, the “PBM E-score” value was -0.266. CTCAACAA was tested, and the “PBM E-score” value was 0.115. GAATCGTC was tested, and the “PBM E-score” value was -0.00672. With GGCAGAAC the “PBM E-score” value was -0.146. In the case of CGGTTGGC, the “PBM E-score” value is reported as 0.0506. For CTTGGTAA, the “PBM E-score” value was 0.0229. In the case of ATATTACA, the “PBM E-score” value is reported as 0.268. With GACATCCC the “PBM E-score” value was -0.0101. In the case of AGTCTAGC, the “PBM E-score” value is reported as 0.0641. With AATATAAA the “PBM E-score” value was 0.315. For GCGCTTGA, the “PBM E-score” value was 0.0596. With AAACCTGA the “PBM E-score” value was -0.00998. For ACTGAAGG, the “PBM E-score” value was -0.0334. For CAGTGCAG, the “PBM E-score” value was -0.166. For CGTAGCCA, the “PBM E-score” value was -0.235. For ACGCACGC, the “PBM E-score” value was 0.168. For CTAGGTGA, the “PBM E-score” value was -0.168. AGCCACGG was tested, and the “PBM E-score” value was -0.0398. AACCATGG was tested, and the “PBM E-score” value was -0.0967. With ATGGTAAT the “PBM E-score” value was 0.0919. AGATCGTA was tested, and the “PBM E-score” value was -0.0816. ATGTACAT was tested, and the “PBM E-score” value was 0.174. In the case of TTGGACAA, the “PBM E-score” value is reported as 0.00395. For CGTACCAG, the “PBM E-score” value was -0.0344. In the case of AGCCGTCA, the “PBM E-score” value is reported as -0.0573. For CCAGCGAG, the “PBM E-score” value was -0.137. With GCTTGTCC the “PBM E-score” value was -0.0586. ACCAGCCT was tested, and the “PBM E-score” value was -0.198. In the case of ATCAATTC, the “PBM E-score” value is reported as 0.135. For GTTAAAAA, the “PBM E-score” value was 0.167. In the case of CCCGCTTC, the “PBM E-score” value is reported as -0.0598. In the case of CTTGGAAA, the “PBM E-score” value is reported as 0.0947. AACCCACT was tested, and the “PBM E-score” value was 0.0981. For GGGGGTGA, the “PBM E-score” value was -0.178. With CACCGGGC the “PBM E-score” value was -0.0153. In the case of AGGAGGAT, the “PBM E-score” value is reported as -0.208. In the case of AAGCCTAC, the “PBM E-score” value is reported as -0.0895. With TGTCCAAA the “PBM E-score” value was 0.124. For ATTCCGTC, the “PBM E-score” value was 0.143. With AAGACCTT the “PBM E-score” value was -0.0567. For GTGTCCGA, the “PBM E-score” value was 0.149. In the case of GTTGCGCA, the “PBM E-score” value is reported as -0.226. For AGCAAGCG, the “PBM E-score” value was -0.183. For GGGGACAC, the “PBM E-score” value was -0.142. For CTTAGTGC, the “PBM E-score” value was -0.0466. In the case of CCTTGGAC, the “PBM E-score” value is reported as -0.141. CCATGTCA was tested, and the “PBM E-score” value was -0.242. GGCAGCCC was tested, and the “PBM E-score” value was -0.175. In the case of GAAGGCAC, the “PBM E-score” value is reported as -0.0462. With CCTGAACC the “PBM E-score” value was -0.185. GTATACAC was tested, and the “PBM E-score” value was -0.0284. With ACAGGCAT the “PBM E-score” value was -0.177. For AGGATCGA, the “PBM E-score” value was -0.00806. For AGCCGGAG, the “PBM E-score” value was 0.371. For CCGGACCA, the “PBM E-score” value was 0.241. For ACAAGCCC, the “PBM E-score” value was -0.21. For AAGTATAT, the “PBM E-score” value was 0.24. ACTTGCGA was tested, and the “PBM E-score” value was 0.0658. With ATGGCGTC the “PBM E-score” value was -0.253. With AAACGTGC the “PBM E-score” value was -0.0163. In the case of CGAATTAA, the “PBM E-score” value is reported as 0.21. For CCATGTCG, the “PBM E-score” value was -0.0375. For AGCTTCCG, the “PBM E-score” value was 0.199. CCCATAAC was tested, and the “PBM E-score” value was -0.0366. With AGTTTATA the “PBM E-score” value was 0.335.
